# In all, about 1,200 compounds went through this assay and about 55 (5%) were called active. The shares of active, inactive and inconclusive entries below differ from those in the screen. Calls come from the whole dose curve; as a rule, active = well fitted inhibition curve with a large enough effect; inconclusive = small, poorly fitted or top-dose-only effect; inactive = no such curve, though single readings can be large or run the other way. Potencies of inconclusive entries are left out as doubtful fits.
# Experiment: qHTS Assay to Find Inhibitors of Chronic Active B-Cell Receptor Signaling: Hit Validation in Renilla Reporter Assay; note: nearly all actives have a fitted effect of over 70% in size
# Settings: TMD8 IkB-Renilla luciferase reporter, NF-kB signaling; series mostly up to 57.5 µM
# Outline: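 Dual-Glo luminescence read-out of constitutively expressed IkB-Photinus/Renilla luciferase reporters in ABC-DLBCL lines, used to retest primary hits; reporter enzymes differ from the click beetle luciferases used in the primary screen.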
# Potency is the fitted concentration of half-maximal effect; tags give direction and shape of the fitted curve.
row,Compound,Potency
1,CN(C)c1ccc2c(c1)OC(N)=C(C#N)C2c1cccc(F)c1 (stereo unspecified),"inconclusive [inhibitor, single point]"
2,O=c1cc(-c2ccccc2)[nH]c2ccccc12,inactive
3,CCOC(=S)SCC(=O)Nc1nc(-c2ccc(Br)cc2)cs1,"inconclusive [inhibitor, partial curve]"
4,COc1ccc(/C=N/NC(=O)COc2ccccc2-c2ccccc2)cc1,"inconclusive [inhibitor, single point]"
5,N=C1S/C(=C\c2ccc(-c3cccc(Cl)c3)o2)C(=O)N1c1nccs1,"inconclusive [inhibitor, partial curve]"
6,COCCCn1c(N)c(-c2nc3ccccc3n2C)c2nc3ccccc3nc21,"inconclusive [inhibitor, single point]"
7,O=C(NC(=S)N1CCN(c2ccc(Cl)cc2[N+](=O)[O-])CC1)c1cccs1,"inconclusive [inhibitor, single point]"
8,CCCSc1nnc(Sc2nnnn2-c2ccccc2)s1,"inconclusive [inhibitor, partial curve]"
9,C=CCOc1c(OC)cc(/C=N/Nc2cccc(C(=O)O)c2)c(Br)c1Br,"inconclusive [inhibitor, single point]"
10,O=C(CCl)Nc1cccc(S(=O)(=O)NC2=NCCCCC2)c1,active: 19 µM
11,Cc1ccc(S(=O)(=O)Nc2cccc3cccnc23)cc1,"inconclusive [inhibitor, partial curve]"
12,Cc1ccc(S(=O)(=O)Nc2cccc3ncccc23)s1,"inconclusive [inhibitor, single point]"
13,S=c1nc2ccccc2c2nc(-c3ccccc3)[nH]n12,"inconclusive [inhibitor, single point]"
14,O=c1[nH]c(-c2ccccn2)nc2sc(-c3ccccc3)cc12,"inconclusive [inhibitor, partial curve]"
15,Cc1ccc(/C=[N+](\[O-])c2ccc(N(C)C)cc2)c2nsnc12,"inconclusive [inhibitor, single point]"
16,CNCc1ccccc1Sc1ccc(O)c(O)c1,active: 10.7 µM
17,c1ccc2c(-c3csc(-c4ccncc4)n3)c[nH]c2c1,"inconclusive [inhibitor, single point]"
18,O=C(N/N=C/C(Br)=C\c1ccccc1)c1n[nH]c2c1CCC2,"inconclusive [inhibitor, single point]"
19,Cc1nc2ncccn2c1-c1csc(Nc2ccc(N(C)C)cc2)n1,"inconclusive [inhibitor, single point]"
20,O=C(Oc1c(Cl)cc(Cl)c2cccnc12)c1ccco1,active: 12 µM
21,COc1ccc(C=C2c3ccccc3C(=O)c3ccccc32)c(OC)c1,"inconclusive [inhibitor, single point]"
22,CCC(=O)Nc1ccc(SC#N)cc1C,"inconclusive [inhibitor, single point]"

row,Compound,Potency
1,COc1ccc(OC)c(C2CC(=O)c3c([nH]c(C(=O)OC(C)C)c3C)C2)c1 (stereo unspecified),"inconclusive [inhibitor, single point]"
2,Cc1[nH][nH]c(=O)c1C(c1c(C)[nH][nH]c1=O)c1cn(Cc2ccc(F)cc2)c2ccccc12,"inconclusive [inhibitor, single point]"
3,COc1cc(OC)c(OC)cc1/C=C1\CCC/C(=C\c2cc(OC)c(OC)cc2OC)C1=O,"inconclusive [inhibitor, partial curve]"
4,Cc1nn(-c2ccccc2)c(C)c1/C=N/NC(=O)c1cc(-c2ccccc2)n[nH]1,"inconclusive [inhibitor, partial curve]"
5,Cc1nc2c(-c3ccccc3)c[nH]n2c(=O)c1Cc1ccccc1,"inconclusive [inhibitor, single point]"
6,Cc1ccc(-c2cc(C(=O)N/N=C/c3c(C)nn(-c4ccccc4)c3C)[nH]n2)cc1,"inconclusive [inhibitor, single point]"
7,COc1ccc2[nH]c3c(c2c1)CCN1C(=O)C(CC(=O)NCC24CC5CC(CC(C5)C2)C4)C[C@H](C(=O)N2CCCCC2)[C@@]31C (stereo partly specified),"inconclusive [inhibitor, single point]"
8,O=C(Nc1ccc(N2CCN(C(=O)c3ccc(Cl)cc3)CC2)cc1)c1ccc([N+](=O)[O-])o1,"inconclusive [inhibitor, partial curve]"
9,O=C(CSc1cccc[n+]1[O-])Nc1ccccc1Oc1ccccc1,"inconclusive [inhibitor, single point]"
10,Cc1ccc(C(=O)Oc2ccc(Cl)c3cccnc23)cc1[N+](=O)[O-],"inconclusive [inhibitor, single point]"
11,C/C(Cl)=C\Cn1c(O)c(N=NC(N)=S)c2cc(Br)ccc21,"inconclusive [inhibitor, single point]"
12,COc1ccccc1-c1nnc2sc(-c3ccc(N(C)C)cc3)nn12,inactive
13,Cc1ccc2nc(NC(=O)c3ccccn3)sc2c1,"inconclusive [inhibitor, partial curve]"
14,CCOc1cccc(/C=C/c2ccc3cccc(O)c3n2)c1OC,"inconclusive [inhibitor, single point]"
15,CC(=O)Nc1cc(N=Cc2ccc(O)cc2O)c(Cl)cc1Cl,active: 12 µM
16,COc1ccc(-c2nn(-c3ccccc3)cc2/C=N/NC(N)=S)cc1OC,"inconclusive [inhibitor, single point]"
17,O=C(Oc1c(CN2CCOCC2)cc(Cl)c2cccnc12)c1cccs1,"inconclusive [inhibitor, partial curve]"
18,CNC(=O)[C@H]1O[C@@H](n2cnc3c(NCc4cccc(I)c4)nc(Cl)nc32)[C@H](O)[C@@H]1O,"inconclusive [inhibitor, single point]"
19,O=[N+]([O-])c1cc(Cl)c2cccnc2c1O,"inconclusive [inhibitor, single point]"
20,COc1cc(/C=C/c2ccc3c(Br)cc(Br)c(O)c3n2)ccc1O,"inconclusive [inhibitor, full curve]"
21,Oc1ccc(NCc2ccccc2OCc2ccccc2)cc1,"inconclusive [inhibitor, single point]"
22,O=C(N/N=C/c1ccc(Cl)cc1)c1sccc1OCc1ccc(F)cc1,"inconclusive [inhibitor, single point]"

row,Compound,Potency
1,COc1ccccc1-c1nc2c3ccccc3nc(=S)n2[nH]1,"inconclusive [inhibitor, single point]"
2,CC(Oc1ccc(Br)cc1)c1nc2c3ccccc3nc(=S)n2[nH]1 (stereo unspecified),"inconclusive [inhibitor, single point]"
3,CCOC(=O)/C=C/C(=O)OCC(=O)Nc1ccc(OC)c(Cl)c1,"inconclusive [inhibitor, single point]"
4,COc1ccc2c(c1)sc1nc(-c3ccccc3)cn12,"inconclusive [inhibitor, single point]"
5,O=C(/C=C/c1ccccc1Cl)c1cccnc1,"inconclusive [inhibitor, single point]"
6,CCOC(=O)C1=C(N)Oc2ccc3ccccc3c2C1c1ccc(O)c(OC)c1 (stereo unspecified),"inconclusive [inhibitor, single point]"
7,CCN(CC)c1ccc(Nc2cc3n(c(=O)n2)CCc2cc(OC)c(OC)cc2-3)cc1,"inconclusive [inhibitor, single point]"
8,CCOC(=O)c1c(C=O)c(C)n(Cc2ccccc2)c1C,"inconclusive [inhibitor, single point]"
9,Cc1[nH]n(C(N)=S)c(=O)c1N=Nc1ccc([N+](=O)[O-])cc1Cl,"inconclusive [inhibitor, partial curve]"
10,COc1cccc(/C=N/NC(=O)c2[nH]nc3c2CCc2ccccc2-3)c1O,"inconclusive [inhibitor, partial curve]"
11,COc1ccc(/C=C(\C#N)c2c[nH]c3ccccc23)cc1,"inconclusive [inhibitor, single point]"
12,COc1ccccc1C1CC(=O)Nc2cc3c(cc21)OCCO3 (stereo unspecified),"inconclusive [inhibitor, single point]"
13,Cc1ccc(/C=C/C(=O)c2nc3ccccc3[nH]2)cc1,active: 16.9 µM
14,COC(=O)c1[nH]c2ccccc2c1NC(=O)CN1CCN(C/C=C/c2ccccc2)CC1,"inconclusive [inhibitor, single point]"
15,Cc1csc(N/N=C/c2ccccn2)n1,"inconclusive [inhibitor, single point]"
16,Cc1c(CCC(=O)N[C@@H](C)C(=O)O)c(=O)oc2cc3oc4c(c3cc12)CCCC4,inactive
17,CCOc1ccc(C2=Nn3c(nnc3-c3ccccc3OC)SC2)cc1,inactive
18,O=C1Nc2ccc(Cl)cc2/C1=C/C1CC=CCC1 (stereo unspecified),"inconclusive [inhibitor, single point]"
19,O=C(Nc1nc2c(F)cc(F)cc2s1)c1ccccn1,"inconclusive [inhibitor, partial curve]"
20,COc1cc(/C=N/N(C)c2ccccc2)ccc1O,inactive
21,CCOc1ccc2c(c1)OC(c1ccc(OC)cc1)(C(F)(F)F)NC2=O (stereo unspecified),inactive
22,NC(=S)N=Nc1c(O)n(CCCl)c2ccc(Br)cc12,"inconclusive [inhibitor, partial curve]"

# From PubChem BioAssay AID651568 (National Center for Advancing Translational Sciences (NCATS), 2012)
